Sequences and labels used below:
B1: CPEB3 Ribozyme (parent)
chain: UAACAGGGGGCCACAGCAGAAGCGUUCACGUCGCAGCCCCUGUCAGAUUCUGGUGAAUCUGCGAAUUCUGCUGUAUAUCUC

Read counts are not given, so values of variants with three or more changes are uncertain.

The variants in this series derive from B1. Nature of the series: self-cleavage, relative activity (ratio to wild type); higher = more cleavage; in vitro, sequencing. The gist of the method: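 Barcoded CPEB3 ribozyme mutants, produced by rounds of error-prone PCR, self-cleaved while being transcribed with T7 RNA polymerase for 5 hours at 37°C and during a subsequent 15 min DNase I step before EDTA was added. Sequencing of template-switched cDNA on Illumina gave cleaved and total reads, and DNA sequencing assigned barcodes to variants. Each variant's relative activity is its cleaved/total read fraction divided by the unmutated ribozyme's fraction, averaged across three batches. A variant needed a minimum of 5 reads.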
With A15U U41A C50A, the self-cleavage stood at 0.36.
The same measure for G16C U41A U67A: 0.2; for G16C A56U G61A: 0.1; for A15U U54A C62U: 0.24.
The same measure for G16U A18G C29A U48C G70C A75U: 0.09; for C17G C23G U26A: 0.33.
The same measure for A15U U51C U74C: 1.04; for G16U A35C U49C A57G A64U: 0.1.
C17U C23G U72C: the self-cleavage stood at 0.12.
The same measure for C17U A18U A20C A64G U69C U74C: 0.16; for G16U U49C U60C U69A: 0.06.
On to A15U U49C U66C U72A, for which the self-cleavage amounted to 0.1.
Consider C17A U25C U26C, for which the self-cleavage came to 0.07.
The same measure for C17G G30A C68U U69A U78C: 0.04; for A15U U54C U72C: 0.61; for C17U U25C C37U A57G U60C U80C: 0.11.
For G16A A28G U58A, the self-cleavage worked out at 0.15.
Turning to G16U A64U U76A U80C, the self-cleavage was 0.2.
The same measure for G16A U26C G53C U60A: 0.35.
The same measure for G16C C39U A47G A56C: 0.07; for A15U U31C U41C U43C: 0.23; for G16U A18U U31A U54A: 0.11.
The same measure for G16U U26A A47G A64U U80C: 0.29; for C17U A20G U72C U80C: 0.54; for G16C G24U U25C G52C U69C: 0.07.
For the variant C17G U26A A35G U41C G46A, the self-cleavage is 0.06.
For the variant C17U G33A U80A, the self-cleavage came out at 0.17.
The same measure for C17G A18G A20G U31C U49A U54A U72G: 0.05; for A15U U31A A47G U51A U54A U66C U80A: 0.14; for C17U A28G U76C U78C: 0.51.
The same measure for C17U C29U U60C: 0.25.
The same measure for C17G A18G A45U U69C U72C: 0.18; for G16A A56U A77G: 0.09.
With C17U C39A U41C U72C C81U, the self-cleavage was 0.09.
The same measure for A15U U48C A75G U76C: 0.25.
As to G16C U41C U43A G70C, the self-cleavage is 0.04.
The same measure for A15U U31A U69A U72A: 0.13; for A15U U41C A56G U69A U72A: 0.28.
The same measure for G16A A47U U60G: 0.21; for C17U A45G U60C C62U A75U: 0.1.
On to A15U U31G U41A A64U, for which the self-cleavage is 0.07.
The same measure for C17A A18U G36A U43C U60A: 0.07.
The same measure for G16A A56U U80G: 0.1.
For A15U U31C A35G U78A, the self-cleavage was determined as 1.1.
Take A15U U41C U43A A45U: the self-cleavage amounted to 0.14.
Take A15U U43C U54C U60C: the self-cleavage was determined as 0.19.
Consider C17G U26C A57G U67A A77G, for which the self-cleavage is 0.07.
On to G16A U41C U51C A57G A64U, for which the self-cleavage was 0.25.
Consider G16U A21G U41A G46U G70A U80A, for which the self-cleavage came out at 0.07.
As for A15U U31A U60A, the self-cleavage stood at 0.18.
In the case of A15U U31C U43C A65G, the self-cleavage worked out at 0.06.
The same measure for A15U U54A U60A U67C U69A: 0.2; for C17G A21G A45U A75U A77U: 0.2.
The same measure for C17A U67C U72G U80A: 0.11; for G16A A21G U51C: 0.24; for G16A G33A U51C U54A A77G: 0.14.
The same measure for G16A C29U U72G U78C U80A: 0.07; for C17G A18G C23U U31A G73A: 0.39.
Regarding G16C U31C A64G, the self-cleavage was 0.1.
The same measure for G16A A20G A45U A47G U48C U60A: 0.07; for C17U A20U A77G: 0.15.
The same measure for G16C C39U A56G U80C: 0.06.
A15U U31A A47G U49C: the self-cleavage turned out to be 0.2.
Consider C17A A45U U49G U51C A56G U72A U76C, for which the self-cleavage stood at 0.14.
The same measure for A15U U49A U74C: 0.63.
The same measure for A15U U49A U74G: 0.22; for A15U U60C C62U A75U: 0.12.
Regarding A15U U26C U41C A77G, the self-cleavage amounted to 0.5.
The same measure for C17U G22C U31C C44U A45U: 0.04; for G16U U43C U58C U72C: 0.14.
The same measure for G16C C23U C40U: 0.23.
The same measure for C17U A28G C50U: 0.62; for A15U U31C U41A U66C: 0.08.
As to A15U U31A A56G A65G, the self-cleavage turned out to be 0.15.
A15U U26C U48C U51C: the self-cleavage came out at 0.06.
As to A15U U31C A77G, the self-cleavage was found to be 0.43.
As to A15U U26C G36U U72C, the self-cleavage stood at 0.2.
The same measure for G16U A20U A28G U31C U72A U78C: 0.05; for G16C U31C U41C: 0.2; for A15U U31G A65G: 0.42.
The same measure for A15U U54A U66C A77U C81A: 0.29; for A15U U41A U51A U60C: 0.12.
The same measure for G16A U54A U66C U80C: 0.05; for A15U U26C A47G U49A C81U: 0.27.

For the origin of these results see the RNAGym collection of RNA variant scans (doi:10.1093/nar/gkz1192).
